# PubChem BioAssay AID2546 (National Center for Advancing Translational Sciences (NCATS), 2010)
# Out of some 310,000 compounds screened, about 11,000 (3.5%) were called active. Inconclusive results, whose numbers are uncertain, are shown with a selection of clear calls. Calls follow the shape of the dose curve; as a rule, active = well fitted inhibition curve with a large enough effect; inconclusive = small, poorly fitted or top-dose-only effect, or effect the other way; inactive = flat fitted curve, though single readings scatter. Potencies of inconclusive entries are left out as doubtful fits.
# Experiment: VP16 counterscreen qHTS for inhibitors of ROR gamma transcriptional activity;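 also: Gal4-VP16 expression switched on by copper sulfate through the metallothionein promoter; nearly all actives have a fitted effect of over 50% in size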
# Details: Drosophila S2 Gal4-VP16 UAS-luciferase, luminescence, 20 h; activity, negative = inhibition: at 53.6 µM (top of the series)
# % is scaled to controls: 0 for no effect and ±100 for the full control effect; potency is read from the fitted curve at half-maximal effect; tags tell the direction and shape of the fitted curve.
SMILES,Potency,"activity, negative = inhibition"
O=C(Nc1nc(-c2cc(F)ccc2F)cs1)c1ccccn1,active: 1.26 µM,
COc1ccc(CCN2C(=S)NC3CC2(C)Oc2ccc([N+](=O)[O-])cc23)cc1OC (stereo not given),"inconclusive [inhibitor, single point]",
O=C1CN(C(=O)c2cc3ccccc3o2)c2ccccc2N1,"inconclusive [activator, full curve, poor fit]",
CC(C)/C=N/NC(=O)c1cc(Br)ccc1O,"inconclusive [inhibitor, single point]",
CCOc1ccc(C(=O)Nc2nnc(S(=O)(=O)Nc3ccccc3C)s2)cc1,"inconclusive [inhibitor, single point]",
CN1/C(=C\C(=O)Nc2ccc(F)cc2)C(C)(C)c2ccccc21,"inconclusive [inhibitor, single point]",
O=C(NN1C(=O)c2ccccc2NC1c1ccc([N+](=O)[O-])o1)c1ccccc1 (stereo not given),"inconclusive [inhibitor, single point]",
CCc1cccc(CC)c1NC(=S)NCCc1c(C)[nH]c2ccccc12,active: 7.08 µM,
Cc1cccc(-c2noc(CN(C)C(=O)c3ccc4c(c3)OCO4)n2)c1,,inactive: -3.47%
Cc1cc(C(=O)COc2ccccc2Cl)c(C)n1-c1ccc2c(c1)OCO2,"inconclusive [inhibitor, single point]",
S=c1[nH]nc(Cc2cccc3ccccc23)n1-c1ccccc1,active: 7.08 µM,
C/C(=N\NC(=O)c1nnn(-c2nonc2N)c1CN1CCCCC1)c1ccccc1O,"inconclusive [inhibitor, full curve]",
Brc1ccc(-c2nc(N/N=C/c3cccnc3)c3ccccc3n2)cc1,"inconclusive [inhibitor, single point]",
O=C(NC(=S)Nc1ccccc1Cl)c1csnn1,"inconclusive [inhibitor, single point]",
Cc1ccc(Nc2nnns2)cc1,,inactive: -15.5%
CCOC(=O)N1CCN(c2ncc(C(F)(F)F)cc2Cl)CC1,,inactive: -5.23%
CCC1=NN(C(=O)c2ccc(Br)cc2)C(O)(c2ccc(C)cc2)C1 (stereo not given),active: 11.2 µM,
Cc1ccc(CNC(=O)Cn2cccc2C(=O)c2ccccc2)cc1,"inconclusive [activator, single point]",
CCOC(=O)c1sc(NC(=O)c2cc3n(n2)C(C(F)(F)F)CC(c2cccs2)N3)c(C(=O)OCC)c1C (stereo not given),,inactive: -5.3%
Cc1cccc(/C=N/NC(=O)c2cc(Br)ccc2O)n1,"inconclusive [inhibitor, single point]",
Clc1ccc(-n2cc(COCc3ccccc3)nn2)cc1,"inconclusive [inhibitor, single point]",
CN(C)c1ccc(/C=C/c2cc[n+]([O-])cc2)cc1,,inactive: -26%
CC(=O)Nc1ccc(S(=O)(=O)NCCSCc2ccc(Cl)cc2Cl)cc1,"inconclusive [inhibitor, single point]",

SMILES,Potency,"activity, negative = inhibition"
CCOc1ccc(NC(=O)CN2C(=O)CSC2=O)cc1,"inconclusive [activator, partial curve]",
Cc1c(Br)c(O)c(Br)c(O)c1/C=N/n1c(-c2ccccc2)n[nH]c1=S,,inactive: 2.64%
CCn1c(CNC(=O)COc2ccc(C(C)C)cc2)nnc1SCC(=O)Nc1cc(F)ccc1C,,inactive: -2.52%
CCOc1cc(/C=C2\SC(=NC)N(C)C2=O)c(Br)cc1OC(C)=O,"inconclusive [inhibitor, partial curve]",
O=C(CCn1cnc2ccccc21)N/N=C/c1ccccc1O,active: 0.631 µM,
O=C1CCCC(O)=C1N=Nc1c(Cl)cc(C(F)(F)F)cc1Cl,"inconclusive [inhibitor, single point]",
O=C(Nc1ccccc1)c1ccccc1Oc1ccc(C(F)(F)F)cc1[N+](=O)[O-],"inconclusive [activator, single point]",
Nc1cc(N)nc(SCC(=O)N2CCc3ccccc32)n1,"inconclusive [activator, partial curve]",
O=C1C=C(c2ccc(Cl)cc2)C(=O)N1Nc1ccccc1,active: 3.98 µM,
CCN(CC)S(=O)(=O)c1ccc(Cl)c(C(=O)Nc2cc(C)nn2-c2ccccc2C(F)(F)F)c1,"inconclusive [inhibitor, single point]",
O=S(=O)(Oc1ccc(C(=S)N2CCOCC2)cc1)c1ccc(Cl)cc1,"inconclusive [inhibitor, single point]",
CC(=O)c1c(C)oc2ccc(NS(=O)(=O)c3ccc(C)cc3)cc12,"inconclusive [inhibitor, partial curve]",
Cc1ccc(NC(=O)c2ccc3ccccc3n2)nc1,,inactive: -29.4%
Cc1ccc(-c2csc(NC(=S)NC(=O)c3ccco3)n2)cc1,"inconclusive [inhibitor, single point]",
CCOc1ccccc1C1CC(=O)Nc2cc3c(cc21)OCCO3 (stereo not given),"inconclusive [inhibitor, single point]",
Cc1ccc(/C=N/NC(=O)Nc2ccccc2)o1,"inconclusive [activator, single point]",
COc1ccc(OCc2cccc(C(=O)O)c2)cc1,"inconclusive [activator, full curve, poor fit]",
Cc1csc(NC(=O)CSc2nc3ccccc3s2)n1,,inactive: -13.5%
O=C(CN1C(=O)S/C(=C\c2cccs2)C1=O)Nc1ccc(O)cc1C(=O)O,"inconclusive [inhibitor, full curve, poor fit]",
Cc1ccc(OCC(=O)N/N=C\c2cn(Cc3ccccc3)c3ccccc23)cc1C,"inconclusive [inhibitor, single point]",
Cc1ccccc1-n1c(-c2ccc(Cl)cc2)cnc1SCC(=O)NC1CCS(=O)(=O)C1 (stereo not given),"inconclusive [inhibitor, single point]",
CCCSS/C(CCO)=C(/C)N(C=O)Cc1cnc(C)nc1N,"inconclusive [inhibitor, single point]",
